# Source: article PMC4336329 (PLoS ONE, 2015)
# In all, about 310,000 compounds went through this assay and about 14,000 (4.5%) showed an effect of 50% or more. Effects have a minus sign here. Some of the results follow.
# Target: human ether-à-go-go-related gene (hERG) potassium channel (human, UniProt Q12809)
# Assay: primary screen, population patch clamp on CHO cells stably expressing hERG
# 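Note: peak tail current of the secondary pulse compared with the same well before compound.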
# Chain of human ether-à-go-go-related gene (hERG) potassium channel (Q12809 whole entry, looked up): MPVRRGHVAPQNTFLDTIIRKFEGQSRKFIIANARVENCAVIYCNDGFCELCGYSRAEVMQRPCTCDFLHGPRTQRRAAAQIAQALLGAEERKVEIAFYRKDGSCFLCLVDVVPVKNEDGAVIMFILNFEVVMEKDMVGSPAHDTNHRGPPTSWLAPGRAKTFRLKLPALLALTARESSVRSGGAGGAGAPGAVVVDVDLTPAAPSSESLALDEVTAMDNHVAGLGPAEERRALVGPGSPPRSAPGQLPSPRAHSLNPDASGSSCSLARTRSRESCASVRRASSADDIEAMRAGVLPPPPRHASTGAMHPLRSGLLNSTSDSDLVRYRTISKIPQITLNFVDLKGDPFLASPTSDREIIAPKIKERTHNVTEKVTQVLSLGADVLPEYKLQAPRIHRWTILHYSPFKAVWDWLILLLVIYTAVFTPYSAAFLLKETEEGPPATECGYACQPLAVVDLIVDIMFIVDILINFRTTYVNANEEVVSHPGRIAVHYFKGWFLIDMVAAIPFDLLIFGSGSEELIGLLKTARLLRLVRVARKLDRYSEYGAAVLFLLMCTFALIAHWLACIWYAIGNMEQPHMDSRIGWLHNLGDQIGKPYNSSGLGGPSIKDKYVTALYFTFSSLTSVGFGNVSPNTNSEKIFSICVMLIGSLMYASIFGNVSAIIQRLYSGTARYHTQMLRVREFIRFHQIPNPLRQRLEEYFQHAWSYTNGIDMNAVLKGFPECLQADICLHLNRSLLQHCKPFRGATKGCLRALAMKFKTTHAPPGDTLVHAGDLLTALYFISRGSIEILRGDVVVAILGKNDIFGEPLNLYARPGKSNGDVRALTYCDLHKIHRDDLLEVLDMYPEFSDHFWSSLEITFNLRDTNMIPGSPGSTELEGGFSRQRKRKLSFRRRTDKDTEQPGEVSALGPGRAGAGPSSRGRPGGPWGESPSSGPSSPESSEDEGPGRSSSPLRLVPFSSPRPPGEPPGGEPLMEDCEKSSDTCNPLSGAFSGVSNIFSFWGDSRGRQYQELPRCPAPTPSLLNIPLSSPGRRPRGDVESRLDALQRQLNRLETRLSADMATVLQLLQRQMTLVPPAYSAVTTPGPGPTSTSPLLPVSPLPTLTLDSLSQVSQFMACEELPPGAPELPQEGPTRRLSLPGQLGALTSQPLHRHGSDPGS
row,SMILES,"hERG current change (%, negative = inhibition) at 10uM [%]"
1,CCC(O)CNC(=O)NC(=C(Cl)Cl)c1ccc(C)c(F)c1 (stereo not drawn),-12.6
2,CCc1ccc(S(=O)(=O)NCCc2cn3cccc(C)c3n2)s1,-16.2
3,CN(CCc1cn[nH]c1)Cc1nc(Cc2ccccc2F)no1,10.4
4,CCOc1ccc(-c2nnc3sc(COc4ccc(C)cc4)nn23)cc1,13.3
5,COC(=O)c1cc2c(ccn2-c2ccc(F)cc2)n1CC(=O)N1CCN(C(=O)c2ccco2)CC1,-66.6
6,O=C1CC2c3ccccc3C1C1C(=O)N(Cc3ccccc3)C(=O)C21 (stereo not drawn),3.15
7,O=C(c1cccc([N+](=O)[O-])c1)c1ccc2c(c1)OCCOCCOCCOCCO2,-69.8
8,COc1ccc(CCNC(=O)CSc2nnc3ccc(-c4ccccn4)nn23)cc1,-51.6
9,CN(CC(=O)Nc1ccccc1C(F)(F)F)C(=O)CCc1nc2sc3c(c2c(=O)[nH]1)CCCC3,7.94
10,COc1ccc(Oc2c(Cl)cnn(-c3ccc(F)cc3)c2=O)cc1,-24.2
11,Cc1cccc(NC(=O)CC2(CC(=O)O)CCCC2)c1,24.6
12,CCCCC(=O)Nc1ccc(C(=O)NNC(=O)CCc2ccccc2)cc1,17.2
13,O=C1NC(=S)N/C1=C\c1cccnc1,11.9
14,COc1ccc(C2(O)C(=O)Nc3ccc(C)cc32)cc1 (stereo not drawn),11.7
15,O=C1c2cccc([N+](=O)[O-])c2C(=O)N1c1cccnc1,1.66
16,CC1CCCC(NC(=O)c2ccc3c(SCC(=O)O)c4c(nc3c2)CCC4)C1C (stereo not drawn),3.49
17,COc1ccc(/C=C2/SC(=S)N(CCCC(=O)Nc3ccc(O)cc3)C2=O)cc1OC,2.25
18,Cc1cccc(CCNS(=O)(=O)c2ccc(S(=O)(=O)N3CCC(C)CC3)cc2)c1,12.8
19,O=[N+]([O-])c1cccc(-c2n[nH]c(=S)n2-c2ccc(Br)cc2)c1,-1.17
20,O=C(COC(=O)CCN1C(=O)/C(=C\C=C\c2ccccc2)SC1=S)Nc1ccc(Br)cc1,2.41
21,CCCCNc1nc2ccccc2n1CC(=O)Nc1ccc2c(c1)OCCO2,-10.2
22,COC(=O)Cn1c2ccccc2c2nc(=O)cc(C)n21,20.9
23,COc1ccc(N2C(=O)C3C(C2=O)C(C(=O)c2ccc(Cl)cc2)N2CCCC32)cc1 (stereo not drawn),-30.8
24,CC(C)(C)NC(=O)COc1coc(CN2CCN(C(=O)c3ccco3)CC2)cc1=O,20.1
